Results taken from patent US9763922B2 (priority 2014, dated 2017).

What follows are molecules tested against BRD4 BD1 (Homo sapiens (Human), UniProt O60885) (assay: not given). Conditions: read-out: BRD4 Alpha IC50.
CCCC(=O)N1CCc2c(c(Nc3cc(C(F)F)c(-c4cnn(C)c4)cc3F)nn2C2CCOCC2)C1 [Example 253, 3-[6-(difluoromethyl)-5-(1,5-dimethylpyrazol-4-yl)indolin-1-yl]-N-methyl-1-tetrahydropyran-4-yl-6,7-dihydro-4H-pyrazolo[4,3-c]pyridine-5-carboxamide] gave an IC50 of over 20 µM. For CC(=O)N1CCc2c(c(Nc3cccc(C)c3)nn2C2CC2)C1 [Example 217, 1-[3-[7-fluoro-5-(1-methylpyrazol-4-yl)indolin-1-yl]-1-methyl-6,7-dihydro-4H-pyrazolo[4,3-c]pyridin-5-yl]ethanone], the IC50 was 13.6 µM. CC(=O)N1CCc2c(c(Nc3cccc(C)c3)nn2C(C)c2ccn(C)n2)C1 (stereo not drawn) [Example 210, 1-[3-[5-fluoro-6-(1-methylpyrazol-4-yl)indolin-1-yl]-1-tetrahydrofuran-3-yl-6,7-dihydro-4H-pyrazolo[4,3-c]pyridin-5-yl]ethanone] showed an IC50 of 8.46 µM. Work on COc1ccc(-c2ccc(Nc3nn(C)c4c3CN(C(C)=O)CC4)cc2)cc1 [Example 125, 1-[3-[7-chloro-6-(1-methylpyrazol-4-yl)-3,4-dihydro-2H-quinolin-1-yl]-1-[(3S)-tetrahydrofuran-3-yl]-6,7-dihydro-4H-pyrazolo[4,3-c]pyridin-5-yl]ethanone] yielded an IC50 of 3.53 µM. Work on CC(=O)N1CCc2c(c(Nc3ccc(-c4cnn(C)c4)cc3F)nn2C(C)(C)CO)C1 [Example 244, 1-[3-[6-(difluoromethyl)-5-(1,5-dimethylpyrazol-4-yl)indolin-1-yl]-1-tetrahydropyran-4-yl-6,7-dihydro-4H-pyrazolo[4,3-c]pyridin-5-yl]ethanone] yielded an IC50 of 6.66 µM. In the case of CC(=O)N1CCc2c(c(Nc3ccc(-c4cccc(C)c4)cc3)nn2C)C1 [Example 117, 1-[3-[3-cyclopropyl-6-(1-methylpyrazol-4-yl)-3,4-dihydro-2H-quinolin-1-yl]-1-((S)-tetrahydrofuran-3-yl)-6,7-dihydro-4H-pyrazolo[4,3-c]pyridin-5-yl]ethanone], the IC50 is reported as 3.99 µM. CC(=O)N1CCc2c(c(Nc3ccc(-c4cnn(C)c4)cc3)nn2CCC#N)C1 [Example 184, 1-[3-[5-(1,5-dimethylpyrazol-4-yl)indolin-1-yl]-1-tetrahydrofuran-3-yl-6,7-dihydro-4H-pyrazolo[4,3-c]pyridin-5-yl]ethanone] showed an IC50 of 9.65 µM. Molecule CC(=O)N1CCc2c(c(Nc3ccc(-c4cnn(CCO)c4)cc3)nn2C)C1 [Example 187, 4-[1-(5-acetyl-1-tetrahydrofuran-3-yl-6,7-dihydro-4H-pyrazolo[4,3-c]pyridin-3-yl)indolin-5-yl]-1-methyl-pyrazole-3-carbonitrile] has an IC50 of 12.3 µM. For CCCC(=O)N1CCc2c(c(Nc3ccc(-c4cnn(C)c4)c(C(F)F)c3)nn2C2CCOC2)C1 (stereo not drawn) [Example 255, N-methyl-3-[7-methyl-6-(1-methylpyrazol-4-yl)-3,4-dihydro-2H-quinolin-1-yl]-1-tetrahydropyran-4-yl-6,7-dihydro-4H-pyrazolo[4,3-c]pyridine-5-carboxamide], the IC50 was over 20 µM. Cn1cc(-c2ccc(Nc3nn([C@H]4CCOC4)c4c3CN(C(N)=O)CC4)c(F)c2)cn1 [Example 258, 3-[7-cyclopropyl-6-(1-methylpyrazol-4-yl)-3,4-dihydro-2H-quinolin-1-yl]-N-methyl-1-tetrahydropyran-4-yl-6,7-dihydro-4H-pyrazolo[4,3-c]pyridine-5-carboxamide] showed an IC50 of over 20 µM. Work on CNC(=O)c1cccc(-c2ccc(Nc3nn(C)c4c3CN(C(C)=O)CC4)cc2)c1 [Example 150, 3-[6-(1-methylpyrazol-4-yl)-3,4-dihydro-2H-quinolin-1-yl]-1-[(3S)-tetrahydrofuran-3-yl]-6,7-dihydro-4H-pyrazolo[4,3-c]pyridine-5-carboxamide] yielded an IC50 of 3.52 µM. Molecule CCNC(=O)Cn1nc(Nc2cccc(C)c2)c2c1CCN(C(C)=O)C2 [Example 190, 1-[3-[6-fluoro-5-(1-methylpyrazol-4-yl)indolin-1-yl]-1-tetrahydrofuran-3-yl-6,7-dihydro-4H-pyrazolo[4,3-c]pyridin-5-yl]ethanone] has an IC50 of 28.4 µM. Work on CC(=O)N1CCc2c(c(Nc3cccc(C)c3)nn2CCC2CCCN(C)C2)C1 (stereo not drawn) [Example 216, 1-[3-[4-fluoro-5-(1-methylpyrazol-4-yl)indolin-1-yl]-1-methyl-6,7-dihydro-4H-pyrazolo[4,3-c]pyridin-5-yl]ethanone] yielded an IC50 of 6.89 µM. CC(=O)N1CCc2c(c(Nc3cccc(-c4cncs4)c3)nn2C)C1 [Example 80, 1-[1-methyl-3-(3-thiazol-5-yl-anilino)-6,7-dihydro-4H-pyrazolo[4,3-c]pyridin-5-yl]ethanone] was tested, and the IC50 was 2.34 µM. For CC(=O)N1CCc2c(c(Nc3cccc(C4CCCCC4)c3)nn2CC2CC2)C1 [Example 78, 1-(3-((3-cyclohexylphenyl)amino)-1-(cyclopropylmethyl)-6,7-dihydro-1H-pyrazolo[4,3-c]pyridin-5(4H)-yl)ethanone], the IC50 was 2.36 µM. CC(=O)N1CCc2c(c(Nc3ccc(-c4cncc(C#N)c4)cc3)nn2C)C1 [Example 146, 1-[3-[7-(difluoromethoxy)-6-(1-methylpyrazol-4-yl)-3,4-dihydro-2H-quinolin-1-yl]-1-tetrahydropyran-4-yl-6,7-dihydro-4H-pyrazolo[4,3-c]pyridin-5-yl]ethanone] was tested, and the IC50 was 5.32 µM. CC(=O)N1CCc2c(c(Nc3cccc(C)c3)nn2Cc2ccccc2)C1 [Example 203, 1-(5-acetyl-1-methyl-6,7-dihydro-4H-pyrazolo[4,3-c]pyridin-3-yl)indoline-6-carbonitrile] was tested, and the IC50 was 2.63 µM. Work on CC(=O)N1CCc2c(c(Nc3cccc(C)c3)nn2C(C)CO)C1 (stereo not drawn) [Example 211, 1-(5-acetyl-1-methyl-4,5,6,7-tetrahydro-1H-pyrazolo[4,3-c]pyridin-3-yl)indoline-6-carboxylic Acid] yielded an IC50 of over 19.7 µM. CC(=O)N1CCc2c(c(Nc3ccc(-c4ccc(C#N)cc4)cc3)nn2C)C1 [Example 126, 1-[5-acetyl-1-[(3S)-tetrahydrofuran-3-yl]-6,7-dihydro-4H-pyrazolo[4,3-c]pyridin-3-yl]-6-(1-methylpyrazol-4-yl)-3,4-dihydro-2H-quinoline-7-carbonitrile] was tested, and the IC50 was 5.34 µM. CC(=O)N1CCc2c(c(Nc3ccc(-c4cc(F)ccc4F)cc3)nn2C)C1 [Example 134, 1-[3-[7-methyl-6-(1-methylpyrazol-4-yl)-3,4-dihydro-2H-quinolin-1-yl]-1-[(3S)-tetrahydrofuran-3-yl]-6,7-dihydro-4H-pyrazolo[4,3-c]pyridin-5-yl]ethanone] was tested, and the IC50 was 5.47 µM. CC(=O)N1CCc2c(c(Nc3cccc(C4=CCCCC4)c3)nn2CC2CC2)C1 [Example 77, 1-[3-[6-(1-methylpyrazol-4-yl)-3,4-dihydro-2H-quinolin-1-yl]-1-pyrrolidin-3-yl-6,7-dihydro-4H-pyrazolo[4,3-c]pyridin-5-yl]ethanone] was tested, and the IC50 was 1.51 µM. For CNCCn1cc(-c2ccc(Nc3nn(C)c4c3CN(C(C)=O)CC4)cc2)cn1 [Example 168, 1-[1-methyl-3-[6-(1-methylpyrazol-4-yl)indolin-1-yl]-6,7-dihydro-4H-pyrazolo[4,3-c]pyridin-5-yl]ethanone], the IC50 was 10.2 µM. With CC(=O)N1CCc2c(c(Nc3cccc(C)c3)nn2CC2CCCN(C)C2)C1 (stereo not drawn) [Example 209, 1-[3-[4-fluoro-6-(1-methylpyrazol-4-yl)indolin-1-yl]-1-tetrahydrofuran-3-yl-6,7-dihydro-4H-pyrazolo[4,3-c]pyridin-5-yl]ethanone] the IC50 was 6.05 µM. Work on CC(=O)N1CCc2c(c(Nc3ccc(-c4cn(C)nc4C(N)=O)cc3F)nn2C2CCOC2)C1 (stereo not drawn) [Example 247, 1-[3-[6-(1-methylpyrazol-4-yl)-7-(trifluoromethoxy)-3,4-dihydro-2H-quinolin-1-yl]-1-tetrahydropyran-4-yl-6,7-dihydro-4H-pyrazolo[4,3-c]pyridin-5-yl]ethanone] yielded an IC50 of 9.08 µM. CC(=O)N1CCc2c(c(Nc3ccc(-c4ccc(C#N)nc4)cc3)nn2C)C1 [Example 145, 1-[3-[7-methoxy-6-(1-methylpyrazol-4-yl)-3,4-dihydro-2H-quinolin-1-yl]-1-[(3S)-tetrahydrofuran-3-yl]-6,7-dihydro-4H-pyrazolo[4,3-c]pyridin-5-yl]ethanone] gave an IC50 of 4.4 µM. CC(=O)N1CCc2c(c(Nc3ccc(-c4cnn(C)c4)cc3S(C)(=O)=O)nn2C2CCOC2)C1 (stereo not drawn) [Example 232, cyclopropyl(3-(6-(1-methyl-1H-pyrazol-4-yl)-3,4-dihydroquinolin-1(2H)-yl)-1-(tetrahydro-2H-pyran-4-yl)-6,7-dihydro-1H-pyrazolo[4,3-c]pyridin-5(4H)-yl)methanone] gave an IC50 of 15 µM. Work on CC(=O)N1CCc2c(c(Nc3cccc(-c4cn[nH]c4)c3)nn2C)C1 [Example 82, (S,S)-1-[3-[3-(2,2-difluoroethyl)-6-(1-methylpyrazol-4-yl)-3,4-dihydro-2H-quinolin-1-yl]-1-tetrahydrofuran-3-yl-6,7-dihydro-4H-pyrazolo[4,3-c]pyridin-5-yl]ethanone] yielded an IC50 of 5.38 µM.

The molecules below were run on MYC (assay: cells). Conditions: Homo sapiens, MV4-11, 4 h, read-out: Myc IC50 (μM).
In the case of CNC(=O)N1CCc2c(c(N3CCCc4cc(-c5cnn(C)c5)c(C(F)F)cc43)nn2C2CCN(S(C)(=O)=O)CC2)C1 [Example 337, 3-[7-(difluoromethyl)-6-(1-methylpyrazol-4-yl)-3,4-dihydro-2H-quinolin-1-yl]-N-methyl-1-(1-methylsulfonyl-4-piperidyl)-6,7-dihydro-4H-pyrazolo[4,3-c]pyridine-5-carboxamide], the IC50 is reported as 0.012 µM. In the case of CC(=O)N1CCc2c(c(Nc3ccc(-c4cn[nH]c4)cc3F)nn2C2CCOC2)C1 (stereo not drawn) [Example 248, 3-[7-(difluoromethyl)-4-methyl-6-(1-methylpyrazol-4-yl)-3,4-dihydro-2H-quinolin-1-yl]-N-methyl-1-tetrahydropyran-4-yl-6,7-dihydro-4H-pyrazolo[4,3-c]pyridine-5-carboxamide], the IC50 is reported as 1.09 µM. Molecule COc1cc2c(cc1-c1cnn(C)c1)CCCN2c1nn([C@H]2CCOC2)c2c1CN(C(C)=O)CC2 [Example 145, 1-[3-[7-methoxy-6-(1-methylpyrazol-4-yl)-3,4-dihydro-2H-quinolin-1-yl]-1-[(3S)-tetrahydrofuran-3-yl]-6,7-dihydro-4H-pyrazolo[4,3-c]pyridin-5-yl]ethanone] has an IC50 of 0.055 µM.
